Results reported in ChEMBL document CHEMBL1961873, “Compounds: GSK PKIS; Assays: Nanosyn kinase panel” (2012).
For some assays here: What follows is the remainder of the data, with few or none of the strong results. The entries are a selection whose mix differs from that of the whole data set.

What was measured:
[1] = target: CDK3/Cyclin E (Homo sapiens) (UniProt P24864+Q00526); conditions: at 1 µM;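 also: each figure is a mean percent inhibition of the CDK3/cyclin E complex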
[2] = target: Cyclin-dependent kinase 4 (Homo sapiens) (UniProt P11802); conditions: at 0.1 µM
[3] = target: Cyclin-dependent kinase 4 (Homo sapiens) (UniProt P11802); conditions: at 1 µM
[4] = target: Cyclin-dependent kinase 5 (Homo sapiens) (UniProt Q00535); conditions: at 0.1 µM
[5] = target: Cyclin-dependent kinase 5 (Homo sapiens) (UniProt Q00535); conditions: at 1 µM
[6] = target: Cyclin-dependent kinase 6 (Homo sapiens) (UniProt Q00534); conditions: at 0.1 µM
[7] = target: Cyclin-dependent kinase 6 (Homo sapiens) (UniProt Q00534); conditions: at 1 µM
[8] = target: Dual specificity protein kinase CLK2 (Homo sapiens) (UniProt P49760); conditions: at 0.1 µM
[9] = target: Dual specificity protein kinase CLK2 (Homo sapiens) (UniProt P49760); conditions: at 1 µM
[10] = target: Dual specificity protein kinase CLK3 (Homo sapiens) (UniProt P49761); conditions: at 0.1 µM
[11] = target: Dual specificity protein kinase CLK3 (Homo sapiens) (UniProt P49761); conditions: at 1 µM
[12] = target: Dual specificity tyrosine-phosphorylation-regulated kinase 1A (Homo sapiens) (UniProt Q13627); conditions: at 0.1 µM
[13] = target: Dual specificity tyrosine-phosphorylation-regulated kinase 1A (Homo sapiens) (UniProt Q13627); conditions: at 1 µM
[14] = target: Dual specificity tyrosine-phosphorylation-regulated kinase 1B (Homo sapiens) (UniProt Q9Y463); conditions: at 0.1 µM
[15] = target: Dual specificity tyrosine-phosphorylation-regulated kinase 1B (Homo sapiens) (UniProt Q9Y463); conditions: at 1 µM
[16] = target: T1, Dual specificity tyrosine-phosphorylation-regulated kinase 2 (Homo sapiens) (UniProt Q92630); conditions: at 0.1 µM
T1 sequence (whole entry): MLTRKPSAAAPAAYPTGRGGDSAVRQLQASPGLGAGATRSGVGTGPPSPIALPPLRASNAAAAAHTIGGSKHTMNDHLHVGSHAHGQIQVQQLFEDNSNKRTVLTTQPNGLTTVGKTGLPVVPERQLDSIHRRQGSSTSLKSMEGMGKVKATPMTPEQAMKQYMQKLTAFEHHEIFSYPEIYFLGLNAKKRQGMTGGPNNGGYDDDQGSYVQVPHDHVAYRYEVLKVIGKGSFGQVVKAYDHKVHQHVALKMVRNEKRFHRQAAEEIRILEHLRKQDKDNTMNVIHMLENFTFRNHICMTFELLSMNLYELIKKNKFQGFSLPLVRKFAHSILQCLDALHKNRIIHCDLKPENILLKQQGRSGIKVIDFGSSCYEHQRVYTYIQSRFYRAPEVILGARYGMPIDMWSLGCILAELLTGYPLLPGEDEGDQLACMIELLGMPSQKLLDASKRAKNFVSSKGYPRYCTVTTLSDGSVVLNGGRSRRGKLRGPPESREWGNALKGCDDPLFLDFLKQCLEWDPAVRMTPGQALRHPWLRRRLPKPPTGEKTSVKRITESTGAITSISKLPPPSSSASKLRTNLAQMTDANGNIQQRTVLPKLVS

[17] = target: T1, Dual specificity tyrosine-phosphorylation-regulated kinase 2 (Homo sapiens); conditions: at 1 µM
[18] = target: Glycogen synthase kinase-3 alpha (Homo sapiens) (UniProt P49840); conditions: at 0.1 µM
[19] = target: Glycogen synthase kinase-3 alpha (Homo sapiens) (UniProt P49840); conditions: at 1 µM
[20] = target: Glycogen synthase kinase-3 beta (Homo sapiens) (UniProt P49841); conditions: at 0.1 µM;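 also: values are mean percent inhibition of GSK3B activity, from the GSK Published Kinase Inhibitor Set (PKIS) screening dataset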

SMILES	inhibition [1] [%]	inhibition [2] [%]	inhibition [3] [%]	inhibition [4] [%]	inhibition [5] [%]	inhibition [6] [%]	inhibition [7] [%]	inhibition [8] [%]	inhibition [9] [%]	inhibition [10] [%]	inhibition [11] [%]	inhibition [12] [%]	inhibition [13] [%]	inhibition [14] [%]	inhibition [15] [%]	inhibition [16] [%]	inhibition [17] [%]	inhibition [18] [%]	inhibition [19] [%]	inhibition [20] [%]
CC(C)(C)c1ccc(Oc2nccc(-c3c(-c4ccc(F)cc4)ncn3C3CCNCC3)n2)cc1	-0.43	1.5	6.51	4.8	4.43	-1.34	2.19	-0.22	0.28	-0.41	-0.16	1.75	3.55	-3.25	-2.11	2.34	1.38	2.66	5.93	1.77
Fc1ccc(Oc2nccc(-c3c(-c4ccc(F)cc4)ncn3C3CCNCC3)n2)cc1	-1.09	-0.04	-0.17	-2.5	-1.74	-5.32	-4.91	1.73	5.31	-3.02	-2.72	-1.7	0.72	-3.86	-2.43	3.37	7.29	-1.06	-1.44	-1.98
O=C1NC(=O)C(c2cccc([N+](=O)[O-])c2)=C1Nc1cc(Cl)c(O)c(Cl)c1	-1.8	1.16	5.72	0.17	2.27	-0.6	1.57	2.51	12.5	-0.26	2.15	1.91	20.1	0.13	10.5	-0.18	-1.6	48.3		
COc1ccccc1C1=C(Nc2ccccc2)C(=O)NC1=O	29.5	6.73	29.4	3.17	20.2	4.76	20.8	7.88	49.2	2.3	8.2	2.95	23.5	4.01	22	2.64	3.03	26.8	69.2	
Fc1ccc(-c2ncn(C3CCNCC3)c2-c2ccnc(Oc3ccc(Cl)cc3)n2)cc1	-0.59	-0.8	1.37	0.23		-2.97	-2.58	0.13	0.74		0.05	1.12	1.2	0.04	0.73	-0.08	0.96	0.79	2.27	1.01
O=C(O)c1ccc(Oc2nccc(-c3c(-c4ccc(F)cc4)ncn3C3CCNCC3)n2)cc1	-1.16	3.72	4.08	1.49	0.26	-1.62	0.34	0.79	4.14	0.91	2.43	2.82	3.38	-0.5	-0.18	4.17	8.56	2.11	1.87	1.1
O=C1NC(=O)C(c2ccccc2Cl)=C1Nc1cc(Cl)c(O)c(Cl)c1	1.82	2.68	6.41	0.42	2.95	4.76	7.77	3.44	12.3	3.59	4.11	1.79	9.53	0.73	7.02	2.54	2.84	16.4	60.9	
